{
  "source": "a collection of fitness landscapes (doi:10.1016/j.celrep.2020.107928)",
  "parents": {"B1": {"name": "Caulobacter ParB omega fusion; a variant is named by its letters at X, in order, B8GW30 (parent)", "chain": "MESVVVGEPGMSEGRRGLGRGLSALLGEVDAAPAQAPGEQLGGSREAPIEILQRNPDQPRRTFREEDLEDLSNSIREKGVLQPILVRPSPDTAGEYQIVAGERAWRAAQRAGLKTVPIMVRELDDLAVLEIGIIENVQRADLNVLEEALSYKVLMEKFERTQENIAQTIGKSXSHVANXMRLLXLPDEVQSYLVSGELTAXHARAIAAAADPVALAKQIIEGGLSVRETEALARKAPNLSAGKSKGGRPPRVKDTDTQALESDLSSVLGLDVSIDHRGSTGTLTITYATLEQLDDLCNRLTRGI"}},
  "note": "The full ranking holds about 81,000 sequences; the median of “one-hybrid fitness for binding parS DNA” is about -0.17, and the highest 2% start at about 0.51. The list shows a part of the results.",
  "data": [
    {"variants_of": "B1", "assay": "one-hybrid fitness for binding parS DNA (scaled: cognate 1, non-cognate 0); higher = stronger binding", "conditions": "with parS DNA site", "summary_of_the_method": "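The reporter was HIS3, with the binding site 19 bp from the promoter, in E. coli USO used for bacterial one-hybrid selection of Caulobacter ParB libraries with four specificity codons randomised. Growth was on M9 lacking histidine, with 0.1 mM IPTG and 5 mM 3-AT, for 48 hours at 37°C. Illumina sequencing covered plasmids before and after selection; three replicate libraries were pooled and variants with under 10 reads dropped. A fitness score is the log change in variant-to-wild-type read ratio, rescaled to the cognate and non-cognate references.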", "values": [
      {"variant": "RNTS", "one-hybrid fitness for binding parS DNA": 0.964},
      {"variant": "TQQW", "one-hybrid fitness for binding parS DNA": "≤ 0.2"},
      {"variant": "PNQS", "one-hybrid fitness for binding parS DNA": "≤ 0.2"},
      {"variant": "TPTY", "one-hybrid fitness for binding parS DNA": "≤ 0.2"},
      {"variant": "TCMC", "one-hybrid fitness for binding parS DNA": "≤ 0.2"},
      {"variant": "FCRM", "one-hybrid fitness for binding parS DNA": "≤ 0.2"},
      {"variant": "VSQG", "one-hybrid fitness for binding parS DNA": "≤ 0.2"},
      {"variant": "PCTR", "one-hybrid fitness for binding parS DNA": "≤ 0.2"},
      {"variant": "LHNC", "one-hybrid fitness for binding parS DNA": "≤ 0.2"},
      {"variant": "KIAG", "one-hybrid fitness for binding parS DNA": "≤ 0.2"},
      {"variant": "CWPI", "one-hybrid fitness for binding parS DNA": "≤ 0.2"},
      {"variant": "SMTN", "one-hybrid fitness for binding parS DNA": "≤ 0.2"},
      {"variant": "LVYC", "one-hybrid fitness for binding parS DNA": "≤ 0.2"},
      {"variant": "TFTM", "one-hybrid fitness for binding parS DNA": "≤ 0.2"},
      {"variant": "FCKS", "one-hybrid fitness for binding parS DNA": "≤ 0.2"},
      {"variant": "AASF", "one-hybrid fitness for binding parS DNA": "≤ 0.2"},
      {"variant": "HAPV", "one-hybrid fitness for binding parS DNA": "≤ 0.2"},
      {"variant": "RQIG", "one-hybrid fitness for binding parS DNA": 0.805},
      {"variant": "MYVG", "one-hybrid fitness for binding parS DNA": "≤ 0.2"},
      {"variant": "LQTI", "one-hybrid fitness for binding parS DNA": "≤ 0.2"},
      {"variant": "CHES", "one-hybrid fitness for binding parS DNA": "≤ 0.2"},
      {"variant": "LVNE", "one-hybrid fitness for binding parS DNA": "≤ 0.2"},
      {"variant": "QAWF", "one-hybrid fitness for binding parS DNA": "≤ 0.2"},
      {"variant": "DNCR", "one-hybrid fitness for binding parS DNA": "≤ 0.2"},
      {"variant": "RGNI", "one-hybrid fitness for binding parS DNA": "≤ 0.2"},
      {"variant": "TRQA", "one-hybrid fitness for binding parS DNA": "≤ 0.2"},
      {"variant": "KAFT", "one-hybrid fitness for binding parS DNA": "≤ 0.2"},
      {"variant": "GWAR", "one-hybrid fitness for binding parS DNA": "≤ 0.2"},
      {"variant": "RKRE", "one-hybrid fitness for binding parS DNA": "≤ 0.2"},
      {"variant": "IKLD", "one-hybrid fitness for binding parS DNA": "≤ 0.2"},
      {"variant": "LAYY", "one-hybrid fitness for binding parS DNA": "≤ 0.2"},
      {"variant": "RWPD", "one-hybrid fitness for binding parS DNA": "≤ 0.2"},
      {"variant": "QFIA", "one-hybrid fitness for binding parS DNA": "≤ 0.2"},
      {"variant": "SDSY", "one-hybrid fitness for binding parS DNA": "≤ 0.2"},
      {"variant": "WREC", "one-hybrid fitness for binding parS DNA": "≤ 0.2"},
      {"variant": "PCAG", "one-hybrid fitness for binding parS DNA": "≤ 0.2"},
      {"variant": "LYHY", "one-hybrid fitness for binding parS DNA": "≤ 0.2"},
      {"variant": "NKRR", "one-hybrid fitness for binding parS DNA": "≤ 0.2"},
      {"variant": "RAEW", "one-hybrid fitness for binding parS DNA": "≤ 0.2"},
      {"variant": "HEWT", "one-hybrid fitness for binding parS DNA": "≤ 0.2"},
      {"variant": "APQE", "one-hybrid fitness for binding parS DNA": "≤ 0.2"},
      {"variant": "CYAS", "one-hybrid fitness for binding parS DNA": "≤ 0.2"},
      {"variant": "IHHS", "one-hybrid fitness for binding parS DNA": "≤ 0.2"},
      {"variant": "IMPL", "one-hybrid fitness for binding parS DNA": "≤ 0.2"},
      {"variant": "QLTE", "one-hybrid fitness for binding parS DNA": "≤ 0.2"},
      {"variant": "CGNV", "one-hybrid fitness for binding parS DNA": 0.225},
      {"variant": "ERGC", "one-hybrid fitness for binding parS DNA": "≤ 0.2"},
      {"variant": "CGDK", "one-hybrid fitness for binding parS DNA": "≤ 0.2"},
      {"variant": "VWAS", "one-hybrid fitness for binding parS DNA": "≤ 0.2"},
      {"variant": "WKDY", "one-hybrid fitness for binding parS DNA": "≤ 0.2"},
      {"variant": "ESFE", "one-hybrid fitness for binding parS DNA": "≤ 0.2"},
      {"variant": "CLLM", "one-hybrid fitness for binding parS DNA": "≤ 0.2"},
      {"variant": "LLQQ", "one-hybrid fitness for binding parS DNA": "≤ 0.2"},
      {"variant": "RIMT", "one-hybrid fitness for binding parS DNA": 0.878},
      {"variant": "IVVG", "one-hybrid fitness for binding parS DNA": "≤ 0.2"},
      {"variant": "AQRP", "one-hybrid fitness for binding parS DNA": "≤ 0.2"},
      {"variant": "RVTN", "one-hybrid fitness for binding parS DNA": 0.432},
      {"variant": "PALI", "one-hybrid fitness for binding parS DNA": "≤ 0.2"},
      {"variant": "YQMS", "one-hybrid fitness for binding parS DNA": "≤ 0.2"},
      {"variant": "VIPM", "one-hybrid fitness for binding parS DNA": "≤ 0.2"},
      {"variant": "FPCT", "one-hybrid fitness for binding parS DNA": "≤ 0.2"},
      {"variant": "WNDG", "one-hybrid fitness for binding parS DNA": "≤ 0.2"},
      {"variant": "VYCN", "one-hybrid fitness for binding parS DNA": "≤ 0.2"},
      {"variant": "RMPA", "one-hybrid fitness for binding parS DNA": 0.393},
      {"variant": "NWMT", "one-hybrid fitness for binding parS DNA": "≤ 0.2"},
      {"variant": "DFSL", "one-hybrid fitness for binding parS DNA": "≤ 0.2"},
      {"variant": "RVQK", "one-hybrid fitness for binding parS DNA": "≤ 0.2"},
      {"variant": "KPKY", "one-hybrid fitness for binding parS DNA": "≤ 0.2"},
      {"variant": "NEMR", "one-hybrid fitness for binding parS DNA": "≤ 0.2"},
      {"variant": "LHSA", "one-hybrid fitness for binding parS DNA": "≤ 0.2"},
      {"variant": "AYAE", "one-hybrid fitness for binding parS DNA": "≤ 0.2"},
      {"variant": "RFMI", "one-hybrid fitness for binding parS DNA": "≤ 0.2"},
      {"variant": "CRPG", "one-hybrid fitness for binding parS DNA": "≤ 0.2"},
      {"variant": "QHPA", "one-hybrid fitness for binding parS DNA": "≤ 0.2"},
      {"variant": "NYLI", "one-hybrid fitness for binding parS DNA": "≤ 0.2"},
      {"variant": "SNIR", "one-hybrid fitness for binding parS DNA": "≤ 0.2"},
      {"variant": "DQVS", "one-hybrid fitness for binding parS DNA": "≤ 0.2"},
      {"variant": "SWRW", "one-hybrid fitness for binding parS DNA": "≤ 0.2"},
      {"variant": "KGQY", "one-hybrid fitness for binding parS DNA": "≤ 0.2"},
      {"variant": "YTNR", "one-hybrid fitness for binding parS DNA": "≤ 0.2"},
      {"variant": "RFGK", "one-hybrid fitness for binding parS DNA": "≤ 0.2"},
      {"variant": "YASY", "one-hybrid fitness for binding parS DNA": "≤ 0.2"},
      {"variant": "GETQ", "one-hybrid fitness for binding parS DNA": "≤ 0.2"},
      {"variant": "TMHW", "one-hybrid fitness for binding parS DNA": "≤ 0.2"}
    ]}
  ]
}
